According to the supplement of paper PMC12067230:
This is a noisy data set.

Test: amyloid nucleation score relative to library mode (yeast Sup35 reporter selection) (log enrichment difference); higher = more amyloid nucleation; sequences are the first 22 residues of the Bri2 peptide extended by up to 12 random residues
Settings: random library (experiment): 1;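 active = nucleation score significantly above 0 at FDR 0.05; inactive = not significantly above 0 or absent from output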
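Further: [psi-pin-] Saccharomyces cerevisiae expressing SupN fusions, induced by 100 µM Cu2SO4, selected 7 d at 30 °C without adenine and uracil, scored by deep sequencing of output versus input.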

Sequence | amyloid nucleation score
EASNCFAIRHFENKFAVETLICRRILSKYGLEMT | inactive
EASNCFAIRHFENKFAVETLICRRIRRGWPHRRR | inactive
EASNCFAIRHFENKFAVETLICRRKAGGFCSFVT | inactive
EASNCFAIRHFENKFAVETLICRRKEHLCRCISL | inactive
EASNCFAIRHFENKFAVETLICRRKSVPGRGTQL | inactive
EASNCFAIRHFENKFAVETLICRRLLMAARTRVA | 0.618
EASNCFAIRHFENKFAVETLICRRLRESVPGGR | inactive
EASNCFAIRHFENKFAVETLICRRNAILSQTSFE | inactive
EASNCFAIRHFENKFAVETLICRRPDGAKSCDEI | inactive
EASNCFAIRHFENKFAVETLICRRPGD | inactive
EASNCFAIRHFENKFAVETLICRRQA | inactive
EASNCFAIRHFENKFAVETLICRRR | inactive
EASNCFAIRHFENKFAVETLICRRRGHRVAVGGK | -0.211
EASNCFAIRHFENKFAVETLICRRRKCADERTRA | 0.335
EASNCFAIRHFENKFAVETLICRRRLTSLRARMQ | inactive
EASNCFAIRHFENKFAVETLICRRRQETSWVGDR | -0.029
EASNCFAIRHFENKFAVETLICRRRTDEAGGHAR | inactive
EASNCFAIRHFENKFAVETLICRRRVESRQAW | -0.579
EASNCFAIRHFENKFAVETLICRRRYLKLAFGAP | -0.0664
EASNCFAIRHFENKFAVETLICRRS | inactive

Sequence | amyloid nucleation score
EASNCFAIRHFENKFAVETLICRRSG | inactive
EASNCFAIRHFENKFAVETLICRRSGRTRRWPGC | 6.39
EASNCFAIRHFENKFAVETLICRRSRCRALRVNT | inactive
EASNCFAIRHFENKFAVETLICRRSRVNW | inactive
EASNCFAIRHFENKFAVETLICRRVIQPLLRELP | inactive
EASNCFAIRHFENKFAVETLICRRVKHNREAYTR | 0.0924
EASNCFAIRHFENKFAVETLICRRVLLLYLCGVT | inactive
EASNCFAIRHFENKFAVETLICRRVRCRQQGVLH | inactive
EASNCFAIRHFENKFAVETLICRRVRTGEIKAWC | inactive
EASNCFAIRHFENKFAVETLICRRVSWMGHLSSR | inactive
EASNCFAIRHFENKFAVETLICRRVVWWLLNPLA | inactive
EASNCFAIRHFENKFAVETLICRRVWKRVRSCTA | inactive
EASNCFAIRHFENKFAVETLICRRWDAWN | inactive
EASNCFAIRHFENKFAVETLICRRWETLV | 0.573
EASNCFAIRHFENKFAVETLICRRWTGALRVAWL | inactive
EASNCFAIRHFENKFAVETLICRRYDMEVFWLAQ | 0.00985
EASNCFAIRHFENKFAVETLICRRYVDLVDTLQL | inactive
EASNCFAIRHFENKFAVETLICRS | -0.399
EASNCFAIRHFENKFAVETLICRSACSVWDWQCW | 5.1
EASNCFAIRHFENKFAVETLICRSAVYRRSMSVC | inactive

Sequence | amyloid nucleation score
EASNCFAIRHFENKFAVETLICRSC | inactive
EASNCFAIRHFENKFAVETLICRSCCHGLRNKE | 1.53
EASNCFAIRHFENKFAVETLICRSCICTCPKLEV | 5.44
EASNCFAIRHFENKFAVETLICRSCMCVELGWKR | 4.08
EASNCFAIRHFENKFAVETLICRSCNVALGWRQG | 6.26
EASNCFAIRHFENKFAVETLICRSCRYCSTWFLT | inactive
EASNCFAIRHFENKFAVETLICRSCTSSTLCLRS | 3.16
EASNCFAIRHFENKFAVETLICRSDFCAGVQCCG | inactive
EASNCFAIRHFENKFAVETLICRSDSQTARVIFQ | 2.02
EASNCFAIRHFENKFAVETLICRSEAECCMGRPV | inactive
EASNCFAIRHFENKFAVETLICRSEFCSARKCWQ | 4.74
EASNCFAIRHFENKFAVETLICRSEGVVKGGDKV | inactive
EASNCFAIRHFENKFAVETLICRSEPQDCPVMVG | inactive
EASNCFAIRHFENKFAVETLICRSERATRMGTAT | inactive
EASNCFAIRHFENKFAVETLICRSEYEKGTYIVL | inactive
EASNCFAIRHFENKFAVETLICRSFSIIFEKAWD | inactive
EASNCFAIRHFENKFAVETLICRSHGVICLRVDW | inactive
EASNCFAIRHFENKFAVETLICRSIGFEIVDSYW | 3.37

Same assay, conditions: random library (experiment): 2

Sequence | amyloid nucleation score
EASNCFAIRHFENKFAVETLICRRKTGRDERKND | inactive
EASNCFAIRHFENKFAVETLICRRLGFGLVGPVS | inactive
EASNCFAIRHFENKFAVETLICRRMCNPRANRHG | -0.199
EASNCFAIRHFENKFAVETLICRRMGHSVPSSRD | inactive
EASNCFAIRHFENKFAVETLICRRMSTYKWIRVV | inactive
EASNCFAIRHFENKFAVETLICRRQ | inactive
EASNCFAIRHFENKFAVETLICRRRTE | inactive
EASNCFAIRHFENKFAVETLICRRSKSQRILWML | inactive
EASNCFAIRHFENKFAVETLICRRSVMGVQRL | 5.83
EASNCFAIRHFENKFAVETLICRRWSCSDWHSLL | inactive
EASNCFAIRHFENKFAVETLICRRYRDRVGWKVM | inactive
EASNCFAIRHFENKFAVETLICRSAFDSLVGAYE | inactive
EASNCFAIRHFENKFAVETLICRSAFERFVSVVK | inactive
EASNCFAIRHFENKFAVETLICRSCCHVLCFEEM | 1.08
EASNCFAIRHFENKFAVETLICRSCCLPNTWASV | 6.28
EASNCFAIRHFENKFAVETLICRSCDNVHWLMGQ | inactive
EASNCFAIRHFENKFAVETLICRSCFLLVMWELY | inactive
EASNCFAIRHFENKFAVETLICRSCISHLVGSCG | inactive
EASNCFAIRHFENKFAVETLICRSDVFHNYLGLQ | 2.02
EASNCFAIRHFENKFAVETLICRSDVSMIYHGSM | 2.27
EASNCFAIRHFENKFAVETLICRSFHEGCRPLYM | inactive
EASNCFAIRHFENKFAVETLICRSG | inactive
EASNCFAIRHFENKFAVETLICRSGKSRCNSI | -0.207
EASNCFAIRHFENKFAVETLICRSHFRMNNKGCC | 2.86
EASNCFAIRHFENKFAVETLICRSIHLRLFEVER | inactive
EASNCFAIRHFENKFAVETLICRSKPSMPIRGGR | inactive

Same assay, conditions: random library (experiment): 3

Sequence | amyloid nucleation score
EASNCFAIRHFENKFAVETLICRRK | inactive
EASNCFAIRHFENKFAVETLICRRKLQTGRGSAP | inactive
EASNCFAIRHFENKFAVETLICRRKVSFTLGCQV | 2.33
EASNCFAIRHFENKFAVETLICRRLHPFPFSVA | 6.39
EASNCFAIRHFENKFAVETLICRRLVQ | inactive
EASNCFAIRHFENKFAVETLICRRMELIVRSGVG | inactive
EASNCFAIRHFENKFAVETLICRRNPGLNFRWIE | inactive
EASNCFAIRHFENKFAVETLICRRRDQDSEGPAM | inactive
EASNCFAIRHFENKFAVETLICRRRGW | inactive
EASNCFAIRHFENKFAVETLICRRRSC | inactive
EASNCFAIRHFENKFAVETLICRRSGTSPGAPWG | 1.4
EASNCFAIRHFENKFAVETLICRRSKPL | 0.798
EASNCFAIRHFENKFAVETLICRRSSVEHGRW | 0.831
EASNCFAIRHFENKFAVETLICRRSVDKCPHSSS | inactive
EASNCFAIRHFENKFAVETLICRRSWDAICLLRR | inactive
EASNCFAIRHFENKFAVETLICRRVQPLKTKCWL | inactive
EASNCFAIRHFENKFAVETLICRRVRPGEKLAWR | inactive

Sequence | amyloid nucleation score
EASNCFAIRHFENKFAVETLICRRVRRIFLWGTR | inactive
EASNCFAIRHFENKFAVETLICRRWVRMSDLVLE | inactive
EASNCFAIRHFENKFAVETLICRRYRRDPVSNNG | inactive
EASNCFAIRHFENKFAVETLICRSAAFTRLKALL | inactive
EASNCFAIRHFENKFAVETLICRSAFGRNLVMGR | inactive
EASNCFAIRHFENKFAVETLICRSCVL | inactive
EASNCFAIRHFENKFAVETLICRSDVSSMLRTVS | inactive
EASNCFAIRHFENKFAVETLICRSEKRMVFRASA | inactive
EASNCFAIRHFENKFAVETLICRSGAPEFTYRAA | inactive
EASNCFAIRHFENKFAVETLICRSGEWVRSKRCV | inactive
EASNCFAIRHFENKFAVETLICRSGSPWASAMRR | 2.26
EASNCFAIRHFENKFAVETLICRSGYRMAKAGRV | inactive
EASNCFAIRHFENKFAVETLICRSHC | inactive
EASNCFAIRHFENKFAVETLICRSHVTSACGKVL | 0.0944
EASNCFAIRHFENKFAVETLICRSILSCCGTWYS | 5.19
EASNCFAIRHFENKFAVETLICRSIWHLVVSGVE | inactive
EASNCFAIRHFENKFAVETLICRSK | 0.778
